Measured values reported in paper PMC4336329 (PLoS ONE, 2015).
About 14,000 (4.5%) of roughly 310,000 compounds showed an effect of 50% or more. The effect is printed as a negative number. The list shows a part of the results.

What follows are molecules tested against human ether-à-go-go-related gene (hERG) potassium channel (human, UniProt Q12809) (assay: primary screen, population patch clamp on CHO cells stably expressing hERG).
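Further: peak tail current of the secondary pulse compared with the same well before compound.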

Sequence of human ether-à-go-go-related gene (hERG) potassium channel (Q12809 whole entry, looked up): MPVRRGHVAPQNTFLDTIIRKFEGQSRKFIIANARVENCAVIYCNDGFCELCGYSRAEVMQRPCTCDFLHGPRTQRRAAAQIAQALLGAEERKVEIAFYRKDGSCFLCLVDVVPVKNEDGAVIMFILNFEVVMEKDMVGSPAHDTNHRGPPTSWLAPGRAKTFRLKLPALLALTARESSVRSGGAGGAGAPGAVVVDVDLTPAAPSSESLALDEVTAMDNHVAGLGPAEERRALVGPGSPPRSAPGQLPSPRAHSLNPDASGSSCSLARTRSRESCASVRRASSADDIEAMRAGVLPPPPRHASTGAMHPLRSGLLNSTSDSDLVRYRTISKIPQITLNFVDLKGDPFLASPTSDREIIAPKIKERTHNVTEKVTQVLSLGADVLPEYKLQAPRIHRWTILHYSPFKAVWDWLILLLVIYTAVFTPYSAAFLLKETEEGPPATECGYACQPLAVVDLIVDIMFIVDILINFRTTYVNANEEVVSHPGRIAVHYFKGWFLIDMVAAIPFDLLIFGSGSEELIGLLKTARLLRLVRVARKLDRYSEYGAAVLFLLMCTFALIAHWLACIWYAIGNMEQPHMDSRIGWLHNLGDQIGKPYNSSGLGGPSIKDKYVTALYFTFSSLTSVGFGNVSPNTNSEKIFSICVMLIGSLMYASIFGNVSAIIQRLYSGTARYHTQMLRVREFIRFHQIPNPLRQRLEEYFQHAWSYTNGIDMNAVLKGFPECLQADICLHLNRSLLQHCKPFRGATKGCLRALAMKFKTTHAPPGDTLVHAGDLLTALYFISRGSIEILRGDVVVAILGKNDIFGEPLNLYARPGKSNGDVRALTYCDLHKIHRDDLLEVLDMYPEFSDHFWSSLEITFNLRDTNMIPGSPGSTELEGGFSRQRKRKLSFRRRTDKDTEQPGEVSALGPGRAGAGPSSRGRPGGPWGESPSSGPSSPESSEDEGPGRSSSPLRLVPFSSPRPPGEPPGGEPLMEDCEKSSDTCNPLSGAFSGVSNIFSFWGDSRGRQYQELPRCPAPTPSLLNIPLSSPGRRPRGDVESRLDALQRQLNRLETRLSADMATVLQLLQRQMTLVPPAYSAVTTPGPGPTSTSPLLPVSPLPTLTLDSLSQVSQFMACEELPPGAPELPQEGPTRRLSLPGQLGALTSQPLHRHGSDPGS

| Structure (SMILES) | hERG current change (%, negative = inhibition) at 10uM |
| --- | --- |
| CCOc1ccc(N(CC(=O)NCc2ccccc2Cl)S(=O)(=O)c2c(C)[nH]c(=O)[nH]c2=O)cc1 | 7.75% |
| N#CC1=C(N)Oc2[nH]c(=S)[nH]c(=O)c2C12C(=O)Nc1ccccc12 (centres unmarked) | 15.1% |
| C=CCN(c1ccccc1C(=O)NCC(=O)O)S(=O)(=O)c1ccc(C)cc1 | 13% |
| O=C(NCc1ccccn1)C1CCN(S(=O)(=O)c2ccc(Br)cc2)CC1 | -26.8% |
| COc1ccc(CNC(=O)c2sc3nc4c(c(C(F)(F)F)c3c2N)CCC4)cc1 | 11.7% |
| CCOC(=O)CC(NS(=O)(=O)c1ccc(NC(C)=O)cc1)c1ccc(OCC)cc1 (centres unmarked) | -3.92% |
| Cc1cc(C)n(CC(O)COc2ccc(C(C)(C)C)cc2)n1 (centres unmarked) | 4.37% |
| COc1cc2c(cc1OC)CN(CC(=O)Nc1ccc(C#N)cc1)CC2 | -63.1% |
| N#C/C(=C\c1cccnc1)C(=O)Nc1cccc2ccccc12 | -3.47% |
| CC(=O)c1ccc(NC(=O)c2ccc(CSc3ccccc3)o2)cc1 | -8.11% |
| O=C1[C@@H]2C(c3ccccc3Cl)=NO[C@@H]2C(=O)N1Cc1ccccc1 | 6.11% |
| COc1cc(Cl)c(S(=O)(=O)N2CC(C)OC(C)C2)cc1Cl (centres unmarked) | 7.68% |
| O=C(CSc1nc(Cc2ccccc2)nc2ccccc12)Nc1ccc2c(c1)OCCO2 | -15.5% |
| CCCc1nc2c(c(=O)c3ccccc3n2C)c(=O)n1C1CCCCCC1 | -10.1% |
| CCn1ncc(Br)c1C(=O)Nc1ccn(C23CC4CC(CC(C4)C2)C3)n1 | 12% |
| O=C(NCCc1ccncc1)Nc1ccc(F)cc1 | 1.45% |
| Cc1ccc2nc(C)cc(C(=O)OCC(=O)Nc3c(C)n(C)n(-c4ccccc4)c3=O)c2c1 | -9.41% |
| Cc1nc(C)c(C(=O)Nc2cccc(Cl)c2)o1 | -11.3% |
| OCCN1CCN(C(=S)c2ccc(Cl)c(Cl)c2)CC1 | -5.55% |
| O=C(OCC(=O)C12CC3CC(CC(C3)C1)C2)c1ccccn1 | -6.62% |
| CCn1c(SCC(=O)Nc2cc(OC)c(OC)c(OC)c2)nnc1-c1cccs1 | -7.07% |
| CCOC(=O)c1nn(-c2cccc(OC)c2)c2nc(CC)c(C#N)c(=O)n12 | -3.07% |
| CCOC(=O)c1ccccc1NC(=O)CSc1nncn1C | 9.27% |

| Structure (SMILES) | hERG current change (%, negative = inhibition) at 10uM |
| --- | --- |
| COc1cc(CN2CCCC(CO)(Cc3ccccc3)C2)ccc1O (centres unmarked) | -17.6% |
| COc1cc(/C=N/NC(=O)CNC(=O)c2ccncc2)ccc1O | 3.69% |
| CCCCCN(C(=O)NC(=O)Nc1ccc(C)cc1C)S(C)(=O)=O | 13.2% |
| O=P(c1ccccc1)(c1nc2ccccc2s1)N1CCOCC1 (centres unmarked) | 16.6% |
| COc1ccc(S(=O)(=O)NC(C)C(=O)NCc2ccccn2)cc1OC (centres unmarked) | 13.1% |
| CNC(=S)NCCC(c1ccccc1)c1ccccc1 | 7.46% |
| NS(=O)(=O)c1cccc(NC(=O)CC23CC4CC(CC(Br)(C4)C2)C3)c1 | -1.64% |
| CCOC(=O)CSc1nc(C2CC2)nc2ccccc12 | -2.14% |
| COc1cccc(NC(=O)N2CCC(NC(=O)C3CCCCC3)CC2)c1 | 17.7% |
| Cc1ccc(-c2nc(N/N=C/c3cccc([N+](=O)[O-])c3)c3ccccc3n2)cc1 | 1.31% |
| CC(C)C/C(=N/O)c1c[nH]c2ccccc12 | -0.0398% |
| CCNC(=O)NC(=O)COC(=O)c1ccccc1SCC(=O)NC(=O)NCC | 3.64% |
| CCOP(=O)(NC12CC3CC(CC(C3)C1)C2)NC12CC3CC(CC(C3)C1)C2 | 16.2% |
| Cc1ccccc1OCCN1CCCC1 | 7.01% |
| CCN=c1scc(C)n1/N=C/c1cc(Br)c(O)c(Br)c1 | 2.83% |
| CC1(OC(=O)C2CCCC2)C(=O)C=C2C=C(c3ccsc3)N(C3CCCCC3)C=C2C1=O (centres unmarked) | -15.8% |
| CCOc1ccc(Nc2c3c(nc4ncnn24)CC(C)CC3)cc1 (centres unmarked) | -53.9% |
| CCOC(=O)C1C2C=CC3(CN(c4ccc(Cl)c(F)c4)C(=O)C13)O2 (centres unmarked) | 5.52% |
| CC1CN(c2ccccc2)CCN1Cc1nc(Cc2ccccc2)no1 (centres unmarked) | -1.98% |
| C/C(=N/NC(=O)CNS(=O)(=O)c1ccc(C)cc1)c1cccc([N+](=O)[O-])c1 | 14.5% |
| C=CCOC(=O)Nc1c(C(=O)OC)[nH]c2ccc(Cl)cc12 | 13.8% |
| CC1CCCN(C(=O)CN(c2ccccc2)S(=O)(=O)c2ccc(F)cc2)C1 (centres unmarked) | -5.72% |
| Cc1ccc(OCCNC(=O)CCC(=O)N2CCOCC2)cc1 | 15.9% |

| Structure (SMILES) | hERG current change (%, negative = inhibition) at 10uM |
| --- | --- |
| Cc1ccc(-c2nnn(CC(=O)N(c3cnc4ccccc4c3)C(C(=O)NC3CCCC3)c3ccncc3)n2)o1 (centres unmarked) | 10.8% |
| CC(=O)NC(c1ccc(Cl)cc1)c1c(O)ccc2ccc(O)cc12 (centres unmarked) | -4.15% |
| Nn1c(SCC(=O)NC2CCCCC2)nnc1C1CC1 | 20.7% |
| CCOc1ccc(C2c3c(oc4cc(C)c(C)cc4c3=O)C(=O)N2CCCN(C)C)cc1OC (centres unmarked) | -2.54% |
| O=S(=O)(NC1CCCC1)c1ccc(-n2cnnn2)cc1 | -3.62% |
| O=S(=O)(c1ccccc1)N1CCn2c(nc3ccccc32)C1 | 13.9% |
| Cc1cccc(C(=O)NC2CCN(C(=O)Nc3ccccc3C)CC2)c1 | 18% |
| C=CCOc1ccc(/C=C/C(=O)OCC(=O)N(C)CC(=O)Nc2ccc(F)cc2)cc1 | 7.74% |
| CCOc1ccc(-c2c(C(=O)N/N=C/c3ccsc3)nnn2-c2nonc2N)cc1 | 16.5% |
| CN(c1ccccc1)S(=O)(=O)c1cccc(C(=O)NCCCN2CCCC2=O)c1 | -11.2% |
| Cn1cnnc1SCC(=O)NCCc1ccc(Cl)cc1Cl | 11.2% |
| O=C(NC1=NCCS1)Nc1ccccc1 | 1.08% |
| Cc1c(Cl)cccc1NC(=S)N(CCN(C)C)C(C)c1ccccn1 (centres unmarked) | -17.5% |
| Cc1c(CCC(=O)O)c(=O)oc2c(C)c3occ(-c4ccc(Cl)cc4)c3cc12 | 0.602% |
| O=C(Nc1ccc(NC(=O)c2cccs2)c(Cl)c1)c1ccco1 | -39.4% |
| CC(=O)c1ccc(N/N=C2/CCCNC2=O)cc1 | 11.3% |
| Cc1cc(C)cc(C(=O)NN2CCN(C)CC2)c1 | 39.5% |
| CC1CCCC(NC(=O)CCn2c(=O)oc3ccccc32)C1C (centres unmarked) | -18.4% |
| Cc1ccc(C(=O)N/C(=C\c2cccs2)C(=O)NCCc2ccccn2)cc1C | -1.92% |
| COc1ccccc1OCCC(=O)OCC(=O)Nc1ncc(Cl)cc1Cl | 4.02% |
| CC(=O)c1ccc(N2CCN(S(=O)(=O)c3cccc4nsnc34)CC2)cc1 | 22.5% |
| CCOc1cc(/C=N/NC(=O)C(O)(c2ccccc2)c2ccccc2)ccc1OC(=O)c1ccco1 | 5.61% |
| CC(=O)N1[C@H](C)C=C[C@]1(Cc1ccccc1)C(=O)NCCc1c[nH]c2ccccc12 | -3.45% |

| Structure (SMILES) | hERG current change (%, negative = inhibition) at 10uM |
| --- | --- |
| CC(=O)Nc1ccc(NC(=O)C(C)OC(=O)CNC(=O)c2ccc(-c3ccccc3)cc2)cc1 (centres unmarked) | 5.55% |
| Cc1ccc(Cl)cc1NC(=O)c1ccccn1 | -2.04% |
| O=C(CCc1nc2ccccc2s1)OCC(=O)c1ccccc1 | -13.6% |
| COc1cccc(-c2cc(C(=O)Nc3cccnc3Cl)no2)c1 | 25.5% |
| COC(=O)c1ccc(/C=C/C(=O)c2ccc(OC)c(OC)c2)cc1 | 8.72% |
| Cc1cccc(CN2CCN(C(=O)c3ccccc3F)CC2)c1 | -5.65% |
| COc1ccc(CNC(=O)c2cc(=O)c3cc(C)cc(C)c3o2)cc1 | 2.04% |
| O=C(CSCc1n[nH]c(=O)[nH]1)NCCOc1cccc(Oc2ccccc2)c1 | 6.56% |
| CCS(=O)(=O)N1CCC(NC(=O)C(Cc2ccc(OC)c(OC)c2)NC(C)=O)CC1 (centres unmarked) | 17.6% |
| Cc1nn(-c2ccccc2C(=O)O)c(=O)c2ccccc12 | -0.605% |
| CC1Cc2ccccc2N1C(=O)C1CCCCN1S(=O)(=O)c1ccccc1 (centres unmarked) | -0.157% |
| Cn1c(SCC(=O)Nc2ccc3[nH]c(=O)[nH]c3c2)nnc1-c1ccc(F)cc1 | 7.63% |
| COc1ccc(C(=O)C2CCCN(Cc3cnc(C)s3)C2)c(OC)c1 (centres unmarked) | -42.3% |
| C=C(C)C1CC=C(C)/C(=N/NC(=O)c2cccs2)C1 (centres unmarked) | 19.1% |
| Cc1ccc(NS(=O)(=O)c2cccc(C(=O)NCC3(N(C)C)CCCCC3)c2)cc1 | -22.4% |
| CC1CC(C)CN(S(=O)(=O)N2CCC(C(=O)NCCc3ccccc3)CC2)C1 (centres unmarked) | 22.2% |
| CC(=O)Nc1sc(C)c(C)c1C(=O)OCC(=O)Nc1ccccc1 | 5.91% |
| COCCn1nnnc1C(C(C)C)N1CCCC(C)C1.Cl (centres unmarked) | 10.7% |
| COC(=O)c1ccc(N=Nc2ccccc2)cc1 | 3.06% |
| CCOc1cc(/C=C2\C(=N)N3N=C(CC)SC3=NC2=O)ccc1OCCOc1ccc(NC(C)=O)cc1 | 12.7% |
